{"source": "paper PMC9911399", "about": "“Two distinct binding modes provide the RNA-binding protein RbFox with extraordinary sequence specificity”", "binders": {"B1": {"name": "UUUGCCC (DNA:RNA)", "RNA": "GGGAGACCGGAAUUCAGAUUGUCCUUUGCCCUUAAAUCCCGUCGUAGCCACCA", "DNA 1": "CAATCTGAATTCCGGTCTCCC", "DNA 2": "TGGTGGCTACGACGGGATT"}, "B2": {"name": "AAGCCAA (DNA:RNA)", "RNA": "B1 RNA with U25A, U26A, U27G, G28C, C30A, C31A", "DNA 1": "CAATCTGAATTCCGGTCTCCC", "DNA 2": "TGGTGGCTACGACGGGATT"}, "B3": {"name": "CCUAGUA (DNA:RNA)", "RNA": "B1 RNA with U25C, U26C, G28A, C29G, C30U, C31A", "DNA 1": "CAATCTGAATTCCGGTCTCCC", "DNA 2": "TGGTGGCTACGACGGGATT"}, "B4": {"name": "CCUCAAU (DNA:RNA)", "RNA": "B1 RNA with U25C, U26C, G28C, C29A, C30A, C31U", "DNA 1": "CAATCTGAATTCCGGTCTCCC", "DNA 2": "TGGTGGCTACGACGGGATT"}, "B5": {"name": "GGAACAU (DNA:RNA)", "RNA": "B1 RNA with U25G, U26G, U27A, G28A, C30A, C31U", "DNA 1": "CAATCTGAATTCCGGTCTCCC", "DNA 2": "TGGTGGCTACGACGGGATT"}, "B6": {"name": "GGGCAAC (DNA:RNA)", "RNA": "B1 RNA with U25G, U26G, U27G, G28C, C29A, C30A", "DNA 1": "CAATCTGAATTCCGGTCTCCC", "DNA 2": "TGGTGGCTACGACGGGATT"}, "B7": {"name": "AGGAUGC (DNA:RNA)", "RNA": "B1 RNA with U25A, U26G, U27G, G28A, C29U, C30G", "DNA 1": "CAATCTGAATTCCGGTCTCCC", "DNA 2": "TGGTGGCTACGACGGGATT"}, "B8": {"name": "UUCACGU (DNA:RNA)", "RNA": "B1 RNA with U27C, G28A, C30G, C31U", "DNA 1": "CAATCTGAATTCCGGTCTCCC", "DNA 2": "TGGTGGCTACGACGGGATT"}, "B9": {"name": "CAGAGGU (DNA:RNA)", "RNA": "GGGAGACCGGAAUUCAGAUUGUCCCAGAGGUUUAAAUCCCGUCGUAGCCACCA", "DNA 1": "CAATCTGAATTCCGGTCTCCC", "DNA 2": "TGGTGGCTACGACGGGATT"}, "B10": {"name": "CGUCGGC (DNA:RNA)", "RNA": "B9 RNA with A26G, G27U, A28C, U31C", "DNA 1": "CAATCTGAATTCCGGTCTCCC", "DNA 2": "TGGTGGCTACGACGGGATT"}, "B11": {"name": "AUCAUUA (DNA:RNA)", "RNA": "B9 RNA with C25A, A26U, G27C, G29U, G30U, U31A", "DNA 1": "CAATCTGAATTCCGGTCTCCC", "DNA 2": "TGGTGGCTACGACGGGATT"}, "B12": {"name": "UAAAAUG (DNA:RNA)", "RNA": "B9 RNA with C25U, G27A, G29A, G30U, U31G", "DNA 1": "CAATCTGAATTCCGGTCTCCC", "DNA 2": "TGGTGGCTACGACGGGATT"}, "B13": {"name": "CGCAAAC (DNA:RNA)", "RNA": "B9 RNA with A26G, G27C, G29A, G30A, U31C", "DNA 1": "CAATCTGAATTCCGGTCTCCC", "DNA 2": "TGGTGGCTACGACGGGATT"}, "B14": {"name": "GUCUUAG (DNA:RNA)", "RNA": "B1 RNA with U25G, U27C, G28U, C29U, C30A, C31G", "DNA 1": "CAATCTGAATTCCGGTCTCCC", "DNA 2": "TGGTGGCTACGACGGGATT"}, "B15": {"name": "UCCGAAU (DNA:RNA)", "RNA": "B1 RNA with U26C, U27C, C29A, C30A, C31U", "DNA 1": "CAATCTGAATTCCGGTCTCCC", "DNA 2": "TGGTGGCTACGACGGGATT"}, "B16": {"name": "CGUGUGU (DNA:RNA)", "RNA": "B9 RNA with A26G, G27U, A28G, G29U", "DNA 1": "CAATCTGAATTCCGGTCTCCC", "DNA 2": "TGGTGGCTACGACGGGATT"}, "B17": {"name": "CUGAUAU (DNA:RNA)", "RNA": "B9 RNA with A26U, G29U, G30A", "DNA 1": "CAATCTGAATTCCGGTCTCCC", "DNA 2": "TGGTGGCTACGACGGGATT"}, "B18": {"name": "GAAAACG (DNA:RNA)", "RNA": "B9 RNA with C25G, G27A, G29A, G30C, U31G", "DNA 1": "CAATCTGAATTCCGGTCTCCC", "DNA 2": "TGGTGGCTACGACGGGATT"}, "B19": {"name": "UAGCUUG (DNA:RNA)", "RNA": "B9 RNA with C25U, A28C, G29U, G30U, U31G", "DNA 1": "CAATCTGAATTCCGGTCTCCC", "DNA 2": "TGGTGGCTACGACGGGATT"}, "B20": {"name": "GCCGCAC (DNA:RNA)", "RNA": "B1 RNA with U25G, U26C, U27C, C30A", "DNA 1": "CAATCTGAATTCCGGTCTCCC", "DNA 2": "TGGTGGCTACGACGGGATT"}}, "note": "Numbering of substitutions follows the chain as printed; changes in the protein carry UniProt numbers. This is one part of the list.", "data": [{"target": "T1, RBFOX1 RRM (Homo sapiens, UniProt Q9NWB1 109-208)", "T1 sequence": "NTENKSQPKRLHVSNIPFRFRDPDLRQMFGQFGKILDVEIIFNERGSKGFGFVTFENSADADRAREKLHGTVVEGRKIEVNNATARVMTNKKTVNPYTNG", "experiment": "EMSA; HiTS-Eq, 1 nM pool, 10 min; buffer printed only for the single-RNA assays: 10 mM Tris pH 7.5, 150 mM NaCl, 3.4 mM EDTA, 0.001% NP-40, 30 C", "settings": "tags: His6 N-terminal (pET28a); label: 5' 32P", "in_short": "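Purified RbFox RRM, wild type or mutant, was incubated for 10 min in 50 µL with 1 nM of a 5′-radiolabelled RNA pool carrying 7 randomized nucleotides, whose flanks were annealed to DNA oligonucleotides, over a series of increasing protein concentrations. Unbound RNA was resolved on 8% native PAGE, cut out, reverse-transcribed, barcoded by PCR and sequenced on an Illumina HiSeq 2500. Relative association constants were derived from changes in read counts for each RNA species versus the control reaction and normalised to the cognate motif.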", "values": [{"binder": "B1", "binding signal": "0.0146 KA relative to UGCAUGU"}, {"binder": "B2", "binding signal": "0.000692 KA relative to UGCAUGU"}, {"binder": "B3", "binding signal": "0.00375 KA relative to UGCAUGU"}, {"binder": "B4", "binding signal": "0.00306 KA relative to UGCAUGU"}, {"binder": "B5", "binding signal": "0.00888 KA relative to UGCAUGU"}, {"binder": "B6", "binding signal": "0.014 KA relative to UGCAUGU"}, {"binder": "B7", "binding signal": "0.0197 KA relative to UGCAUGU"}, {"binder": "B8", "binding signal": "0.00918 KA relative to UGCAUGU"}, {"binder": "B9", "binding signal": "0.012 KA relative to UGCAUGU"}, {"binder": "B10", "binding signal": "0.0149 KA relative to UGCAUGU"}, {"binder": "B11", "binding signal": "0.000424 KA relative to UGCAUGU"}, {"binder": "B12", "binding signal": "0.00975 KA relative to UGCAUGU"}, {"binder": "B13", "binding signal": "0.00289 KA relative to UGCAUGU"}, {"binder": "B14", "binding signal": "0.0121 KA relative to UGCAUGU"}, {"binder": "B15", "binding signal": "0.00694 KA relative to UGCAUGU"}, {"binder": "B16", "binding signal": "0.0123 KA relative to UGCAUGU"}, {"binder": "B17", "binding signal": "0.00562 KA relative to UGCAUGU"}, {"binder": "B18", "binding signal": "0.0047 KA relative to UGCAUGU"}, {"binder": "B19", "binding signal": "0.0445 KA relative to UGCAUGU"}, {"binder": "B20", "binding signal": "0.0122 KA relative to UGCAUGU"}]}]}
